According to paper PMC4336329 (PLoS ONE, 2015):
About 2,200 (0.71%) of roughly 310,000 compounds showed an effect of 50% or more. Effects have a minus sign here. This is one part of the list. Where a SMILES comes first, the peptide text is derived from it. [ ]: non-standard residue; d: D form. The star is where a group is joined. PhAc = O=C(Cc1ccccc1)*

Each compound was assayed against human ether-à-go-go-related gene (hERG) potassium channel (human, UniProt Q12809) (assay: primary screen, population patch clamp on CHO cells stably expressing hERG).
Sequence of human ether-à-go-go-related gene (hERG) potassium channel (Q12809 whole entry, looked up): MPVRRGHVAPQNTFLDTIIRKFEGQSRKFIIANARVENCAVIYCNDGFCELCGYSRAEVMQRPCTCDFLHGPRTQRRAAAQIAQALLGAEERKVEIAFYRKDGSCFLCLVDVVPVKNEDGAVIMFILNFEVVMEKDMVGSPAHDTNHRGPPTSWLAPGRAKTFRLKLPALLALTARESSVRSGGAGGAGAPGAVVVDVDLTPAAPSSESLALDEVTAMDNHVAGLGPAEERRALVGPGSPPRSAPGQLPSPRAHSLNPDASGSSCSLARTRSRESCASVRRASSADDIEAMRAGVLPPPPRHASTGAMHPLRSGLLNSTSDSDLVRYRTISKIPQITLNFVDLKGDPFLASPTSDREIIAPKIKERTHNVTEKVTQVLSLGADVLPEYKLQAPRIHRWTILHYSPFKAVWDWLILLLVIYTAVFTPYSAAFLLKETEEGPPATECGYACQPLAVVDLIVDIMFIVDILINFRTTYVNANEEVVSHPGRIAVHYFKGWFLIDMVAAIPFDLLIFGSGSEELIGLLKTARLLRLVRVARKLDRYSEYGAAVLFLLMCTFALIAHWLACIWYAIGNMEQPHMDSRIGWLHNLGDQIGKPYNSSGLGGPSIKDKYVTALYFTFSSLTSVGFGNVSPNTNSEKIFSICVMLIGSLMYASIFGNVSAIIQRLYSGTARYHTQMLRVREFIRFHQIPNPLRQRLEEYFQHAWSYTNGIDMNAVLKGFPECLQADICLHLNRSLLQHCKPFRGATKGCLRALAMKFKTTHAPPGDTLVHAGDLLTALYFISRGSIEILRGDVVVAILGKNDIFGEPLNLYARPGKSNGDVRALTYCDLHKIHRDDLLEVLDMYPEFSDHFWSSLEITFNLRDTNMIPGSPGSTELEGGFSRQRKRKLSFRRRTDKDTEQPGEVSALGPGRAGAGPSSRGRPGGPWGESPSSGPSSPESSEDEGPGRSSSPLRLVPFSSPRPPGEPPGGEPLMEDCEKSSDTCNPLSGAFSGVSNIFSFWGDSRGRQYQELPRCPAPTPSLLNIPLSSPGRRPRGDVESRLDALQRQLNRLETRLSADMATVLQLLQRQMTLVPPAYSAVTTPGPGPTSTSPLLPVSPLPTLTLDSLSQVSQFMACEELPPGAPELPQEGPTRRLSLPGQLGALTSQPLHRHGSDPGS

| SMILES | hERG current change (%, negative = inhibition) at 1uM |
| --- | --- |
| CCn1c(SCC(=O)NCCOC)nc2sc3c(c2c1=O)CCCC3 | 10.1% |
| C#CCOCCOCCOCCNc1nc(N2CCN(C(=O)[C@H](CCC(=O)O)n3cc(C(N)CO)nn3)CC2)nc(N2CCN(C(=O)[C@H](Cc3ccc(O)cc3)n3cc(C(N)CC(C)C)nn3)CC2)n1.Cl (some centres unmarked) | 9.46% |
| CSc1nc(NC(C)(C)C)nc(N2CCOCC2)n1 | 11.6% |
| CCOC(=O)/C(=N/Nc1ccc(C)cc1)S(=O)(=O)c1ccc(Cl)cc1 | 7.55% |
| CC(=C1C(=O)c2ccccc2C1=O)N1CCN(CCN=CC2=C(O)CC(C)(C)CC2=O)CC1 | -5.68% |
| Nc1oc2ccc(F)cc2c(=O)c1C=O | 15.3% |
| O=C(O)c1ccccc1-c1ccccc1C(=O)Nc1nccs1 | 19.4% |
| Cc1ccc(COc2ccc(C(=O)NN)cc2)cc1 | 17.8% |
| CCOC(=O)C(=O)NCc1ccc(/C=C2/N=C(C)C(C(=O)OCC)=C2O)o1 | 9.4% |
| CCC(=O)Nc1nc2ccccc2n1Cc1ccc(Cl)cc1 | 12.3% |
| O=C(O)CC1(CC(=O)Nc2cccc(C(=O)O)c2)CCCC1 | 22.2% |
| CC(=O)NC1C(=O)N(CCN2CCOCC2)c2ccc(Cl)cc21.Cl (centres unmarked) | 11.9% |
| COc1ccccc1N=C(C)C1=C(O)CSC1=O | 12.1% |
| CCOC(=O)C1(Cc2ccc(OC)cc2)CCN(C(=O)CN2CCN(CC)CC2)CC1 | -15.4% |
| COC(=O)c1nc2n(n1)C(c1cccc(Cl)c1)C1=C(CCCC1=O)N2 (centres unmarked) | 10.5% |
| CCCCCC(=O)Nc1cccc(-c2nc3ncccc3o2)c1 | 0.93% |
| CC1=C(C(=O)OCC(C)C)C(c2cc3c(cc2Br)OCO3)NC(=O)N1C (centres unmarked) | 3.4% |
| CC(C)(C)NC(=O)Cn1c(=O)n(CC(=O)NC(C)(C)C)c2ccccc21 | 6.35% |
| Cc1ccc(CNC(=O)CSc2nc3n[nH]c(C)c3c(=N)n2-c2cccc(C)c2)cc1 | -4.56% |
| COC(=O)CN=Cc1c(O)n(-c2ccc(Cl)cn2)c(=O)c2ccccc12 | 7.5% |
| CN(CC(=O)NCCc1ccc(F)cc1)Cc1ccccc1 | 7.06% |
| COCCNC(=S)N1CCN(Cc2cccc(OC)c2)CC1 | 11.9% |

| SMILES | hERG current change (%, negative = inhibition) at 1uM |
| --- | --- |
| COc1ccc(N2C(=O)C3C4C=CC(CC4)C3C2=O)c([N+](=O)[O-])c1 (centres unmarked) | -0.878% |
| CCCOC(=O)Nc1ccc(S(=O)(=O)Nn2cnnc2)cc1 | 14.1% |
| Cc1ccc(C(=O)N2CCN(c3ccc([N+](=O)[O-])c(N4CCOCC4)c3)CC2)cc1 | -12.1% |
| COC(=O)C1NC(=O)N2C(C(=O)OC)C(C)(C)S[C@H]12 (some centres unmarked) | 19.7% |
| O=C(O)C(=O)O.O=C(c1cccnc1)N1CCN(Cc2ccccc2Br)CC1 | 14.4% |
| CCOc1ccc(C2CC(c3ccccc3)Nc3nc(N)nn32)cc1 (centres unmarked) | 1.33% |
| CC(C)(C)OC(=O)N1CCC[C@@H]1C(=O)N1CCC(C(=O)O)CC1 | 16.5% |
| CS(=O)(=O)c1ccc2nc(NC(=O)c3ccc(N4CCCC4=O)cc3)sc2c1 | 5.46% |
| CC(C)C[C@@H](NC(=O)[C@H]1CCCN1C(=O)Cc1ccccc1)C(N)=O (PhAc-[dP]-[dL]-NH2) | 24% |
| CSc1nsc(SC)c1C(N)=O | 12% |
| O=C(O)COc1ccccc1/C=C1\C(=O)Nc2ccc(Br)cc21 | 9.26% |
| CCOC(=O)C1CCN(c2ncnc3nc[nH]c23)CC1 | -1.39% |
| CCOc1ccc(C(=O)Nc2ccccc2N2CCN(C(=O)c3ccccc3)CC2)cc1[N+](=O)[O-] | -84% |
| CCc1nc(SCc2ccc(OC)c(Br)c2)n[nH]1 | 0.314% |
| CCOC(=O)c1c(NC(=O)c2ccc(S(=O)(=O)N(C)CC3CCCO3)cc2)sc2c1CCN(C)C2.Cl (centres unmarked) | 11.3% |
| CCOC(=O)Cc1c(C)nc2c(-c3cccc(Br)c3)cnn2c1C | 11.2% |
| Cc1ccc(Nc2nnc(SCC(=O)NC3CC3)s2)cc1 | 5.38% |
| COC(=O)C1=C(C)N(Cc2ccc(C)cc2)C(=O)/C1=C\c1cc(OC)c(OC)c(OC)c1 | 14.9% |
| CC(=O)Nc1ccc(S(=O)(=O)N(C)c2ccc(OCC(=O)OCC(=O)NCc3ccco3)cc2)cc1 | 7.18% |
| CC(C)NC(=O)COC(=O)c1ccccc1CSC1=NCCS1 | 13% |
| Cc1cc2nc3n(c2cc1C)CC1CC(C(=O)NCC2CC2)N(C)C31 (centres unmarked) | 8.23% |
| Cc1ccc(C(=O)O)cc1NC(=O)Nc1cccc2ccccc12 | 10.4% |
